In the supplement of paper PMC3334620:
The full ranking holds about 33,000 sequences; the median of “E-score (-0.5 to 0.5)” is about -0.036, and the highest 2% start at about 0.37. The list shows a part of the results.

biological target: T1, Yer064c (UniProt P40041); assay: PBM E-score (8-mer binding enrichment) (E-score (-0.5 to 0.5)); higher = stronger / more preferred TF binding; most listed sequences are background and not binding sites; conditions: protein concentration: 200 nM; construct: GST-full length
T1 sequence: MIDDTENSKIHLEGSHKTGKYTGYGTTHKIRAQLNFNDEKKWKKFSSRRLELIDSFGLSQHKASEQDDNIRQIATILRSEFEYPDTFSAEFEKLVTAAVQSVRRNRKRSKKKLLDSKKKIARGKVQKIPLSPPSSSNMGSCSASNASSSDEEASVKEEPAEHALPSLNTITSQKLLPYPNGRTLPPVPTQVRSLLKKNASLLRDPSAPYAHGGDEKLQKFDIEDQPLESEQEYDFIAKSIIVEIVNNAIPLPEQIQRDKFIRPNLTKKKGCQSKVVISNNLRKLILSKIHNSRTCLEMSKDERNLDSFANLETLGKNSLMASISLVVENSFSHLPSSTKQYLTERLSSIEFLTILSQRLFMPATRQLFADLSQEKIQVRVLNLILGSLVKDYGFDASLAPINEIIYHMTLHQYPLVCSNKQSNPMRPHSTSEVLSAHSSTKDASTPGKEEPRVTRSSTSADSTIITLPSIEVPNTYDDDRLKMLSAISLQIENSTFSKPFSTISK
Summary of the method: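 Full-length yeast transcription factors or their DNA-binding domains, GST-tagged and expressed with PURExpress, were applied at about 100-200 nM to universal all-10-mer Agilent arrays. These arrays had been made double-stranded by primer extension on fresh or once-stripped slides. Detection used fluorescent anti-GST, normalisation used masliner, and E-scores for ungapped eight-base words pooled with reverse complements came from the Universal PBM Analysis Suite.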

Row | Sequence | PBM E-score
1 | CATTAATG | 0.0773
2 | GGGACTAC | 0.228
3 | CTTTTCAC | -0.159
4 | CTGATTAA | 0.405
5 | AATATGCC | -0.138
6 | CTTGGTAC | -0.0727
7 | CAGTAATA | 0.124
8 | CGAGCGGA | -0.153
9 | CAATGCAC | 0.0625
10 | GAGGGCGC | -0.45
11 | CATAGATG | 0.0355
12 | GGAGAGCA | -0.193
13 | GACGCAGA | 0.0426
14 | GGAAGGAC | 0.142
15 | GAGTTAAA | 0.00363
16 | ATCTGAAG | 0.0612
17 | AATCGTTC | 0.0572
18 | AAGTACAG | -0.121
19 | CCTGGGTC | -0.0626
20 | AGTTGATG | 0.0667
21 | CGCAGCAA | 0.00828
22 | AAATTGCT | -0.3
23 | ATCCCAAG | -0.179
24 | GGGCGCTA | -0.35
25 | ACCCACAC | 0.127

Row | Sequence | PBM E-score
26 | TGTCTAAA | 0.166
27 | ATCTTATC | 0.0972
28 | CGTCCAAG | -0.177
29 | ACCCGCGA | 0.0279
30 | AGATGTCG | -0.0862
31 | AACTCGGG | -0.0331
32 | CCTAAGAC | 0.0138
33 | AGGCGGCA | -0.203
34 | CATGGTCG | 0.082
35 | GGCAACCC | -0.23
36 | AACACATT | 0.047
37 | CAACACTA | 0.0847
38 | ACTATGCT | 0.106
39 | GAAATGGA | 0.0452
40 | AGTTGTCG | -0.0742
41 | TTAAATAA | 0.0382
42 | ACAAGGCG | -0.166
43 | TCGCGCAA | 0.137
44 | ATCCGTAA | -0.178
45 | CGTGGAGC | -0.124
46 | CAGGAATG | -0.0706
47 | GAGCAGAA | -0.0247
48 | CGCGCCTA | -0.0962
49 | ACTTGGAT | 0.142
50 | GGATAGGA | -0.116

Row | Sequence | PBM E-score
51 | TGAGTAAA | 0.242
52 | AAAAAAAT | -0.13
53 | GAAAACGA | -0.0188
54 | CTCAGAGC | 0.0372
55 | TGGTAACA | -0.124
56 | AGAGTAGC | -0.174
57 | AAATTACC | -0.00692
58 | GAGAAAAC | -0.109
59 | ATATGAAA | 0.0396
60 | ATAATTGG | -0.216
61 | AATATAGT | 0.268
62 | CTGCAGTC | 0.278
63 | TCCGACCA | 0.0238
64 | TATCAGAA | -0.0227
65 | ATGAGTTC | 0.327
66 | AGACTATG | 0.319
67 | ATAACCGG | -0.256
68 | GTATTATA | 0.118
69 | GACTATGA | 0.435
70 | CGGCATAA | -0.242
71 | CCCAAGTC | 0.0126
72 | CACAGAAA | 0.12
73 | CCTCTCAC | -0.213
74 | GAAACGCA | -0.0788
75 | TTAACCAA | 0.125

Row | Sequence | PBM E-score
76 | CTGCCTCC | -0.213
77 | CTCAGGGC | 0.00968
78 | AAAGGGGC | -0.175
79 | AAGCCGGG | -0.164
80 | TCCCTACA | -0.0704
81 | GTAGGAAC | 0.128
82 | GAATACCA | 0.0124
83 | CGTTGTGA | 0.00457
84 | CTTCCGCA | 0.0663
85 | CTATGGAA | 0.0704
86 | CGAGTGGC | -0.301
87 | ACATATCA | -0.0372
88 | CTGGAAAG | 0.0197
89 | CAAACATG | -0.0945
90 | ACCTTGGC | -0.0483
91 | AGTTCGTA | 0.0428
92 | TGCGTCCA | -0.161
93 | ACGTCGTC | -0.0375
94 | CACAATAC | -0.104
95 | AGCCAAAA | 0.00818
96 | CTTGGTTC | -0.0754
97 | CCCGGTAC | -0.19
98 | ATGCATAA | -0.0405
99 | CCTGCACA | -0.181
100 | CTTGGTGC | -0.0416

Row | Sequence | PBM E-score
101 | GAATCCTA | 0.159
102 | ATGCATCC | -0.269
103 | AGTCTCGC | 0.333
104 | CTAGGGCA | -0.247
105 | ATGTGTTA | 0.195
106 | CTCCCCAG | -0.281
107 | TAGGTGAA | 0.147
108 | TCTCTTCA | -0.18
109 | AAAGCCTA | -0.0551
110 | CGCGTAAA | -0.036
111 | GCGACCAA | -0.27
112 | AACGGCAA | -0.0589
113 | CATTCATA | 0.195
114 | ACCCTAAG | -0.159
115 | CTCCTCAC | -0.207
116 | GTAGTCCA | 0.262
117 | TACCGTAA | -0.124
118 | GCGCGGCA | -0.238
119 | AGGGCACG | -0.272
120 | AAAGGGTC | -0.0687
121 | GCTATCGA | -0.11
122 | TCAACACA | 0.198
123 | AGTCCAAT | 0.249
124 | CTCAATAA | 0.165
125 | CCTCGTGC | -0.165

Row | Sequence | PBM E-score
126 | GCTTAGCA | -0.177
127 | ACTCATAG | 0.385
128 | CAAGCGAC | -0.0326
129 | CCTCGGAA | -0.064
130 | GCACTAGA | -0.141
131 | CTAGCCCC | -0.0659
132 | ATCAGAGC | 0.121
133 | ATACGTTA | -0.149
134 | AACGATAG | -0.149
135 | ACCCTCTA | -0.0547
136 | ATAGTCCC | 0.148
137 | AACGACAC | -0.105
138 | ATCCGGAA | 0.135
139 | CATCTTTA | -0.0705
140 | AAAATTAT | 0.0774
141 | ACATGGAT | 0.108
142 | AACTGCGT | 0.127
143 | ATCTTCAT | 0.0285
144 | GATGAACA | -0.015
145 | CTTGTTTC | -0.149
146 | AACTTCGA | -0.0668
147 | CTCAGATA | 0.268
148 | CAGGCGCA | -0.0607
149 | CTTATTGC | -0.2
150 | AAGTATGT | -0.0955

Row | Sequence | PBM E-score
151 | AGAACGTG | -0.217
152 | AATAACAT | -0.0871
153 | CGGTGGGC | -0.341
154 | CAACCTTG | -0.0716
155 | TTGCGCAA | -0.153
156 | TAGGCGGA | -0.0581
157 | AGCAGTGC | -0.107
158 | ACATCGAC | -0.026
159 | TAGGGTCA | -0.096
160 | AATTTACT | 0.105
161 | AGACCGCC | -0.261
162 | CCCGGACG | -0.193
163 | ATCACCAA | 0.291
164 | ATCCCACC | -0.0881
165 | CCCAGAGG | -0.276
166 | CGCATTTA | 0.078
167 | ATCCGAAG | -0.0452
168 | TTCCGCAA | 0.0159
169 | AGGCGCAA | -0.0718
170 | ATATCCCG | -0.128
171 | CATAGTAC | 0.0464
172 | GGTTCCGA | -0.159
173 | GAACCCTC | -0.194
174 | CAGTTTCA | -0.196
175 | CGTCTATC | -0.0526

Row | Sequence | PBM E-score
176 | CGAACTAG | 0.0219
177 | CTTGTAGA | -0.105
178 | GTACCCAC | 0.0716
179 | GTAACATA | -0.141
180 | GTTTGCTA | 0.0898
181 | CCACTATC | -0.176
182 | GAACTTAA | 0.0134
183 | TTAACGAA | 0.183
184 | AGGCACGC | -0.215
185 | GTATGACA | -0.0553
186 | ATGAGAGC | -0.17
187 | CTTCCGCC | -0.183
188 | ATCATTGA | 0.323
189 | TACGTCAA | -0.153
190 | CCTGAGCG | -0.0995
191 | AACTAATG | 0.0134
192 | AACCCAGA | 0.0461
193 | ACCATTAA | 0.0646
194 | ATTCCTTA | 0.0121
195 | AACGGTGT | -0.021
196 | GCAGTGAA | 0.035
197 | CACACATA | 0.0706
198 | CAGTACTC | 0.24
199 | CCGTGACC | -0.0561
200 | CTGTGCAA | 0.00158

Row | Sequence | PBM E-score
201 | CCCTAGTC | 0.326
202 | AGGCTCTC | -0.314
203 | CTGACGCA | -0.152
204 | GAAGGCTC | -0.0881
205 | CCACCGTA | -0.00912
206 | TCTTCGAA | -0.0141
207 | CTAAGAAC | -0.0563
208 | ATAAGAAC | -0.0388
209 | CACATGAA | 0.184
210 | ACGAGTAG | 0.039
211 | CAGCACGG | 0.0779
212 | ATCAGCGG | 0.157
213 | AACTTATA | 0.0736
214 | CTTCGACC | -0.0555
215 | AATTTGCC | -0.18
216 | ATACCAAT | -0.109
217 | GATTAGCC | 0.254
218 | CAATGCCG | -0.288
219 | TATTCTCA | 0.039
